Laboratory results reported in the supplement of paper PMC11417369.
This is one part of the list.

test system: PfHDP1 homeodomain (GST-tagged); experiment: gcPBM binding intensity (ln(normalized median fluorescence intensity)); higher = stronger DNA binding
Outline: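 In this array assay, P. falciparum DNA-binding domains with a GST tag, expressed in E. coli, were applied for 1 h to primer-extended double-stranded 36-bp intergenic genomic probes and negative controls on an Agilent 4 × 180k array. Bound protein was visualised with Alexa488 anti-GST antibody at 488 nm. Binding intensity is the highest Masliner-normalised natural-log median intensity across replicate spots of either probe orientation.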

Sequence	gcPBM binding intensity (ln)
AAACAAATATAATATTGTACATATATATATATATAT [XGTACX_site3105]	9.41
CAGACGCACGTATTTGCACACATTGCCACGTAATTA [CACACA_site3349]	10.2
AACCATTCAACTGATGCATGCATTTAACATATAAAT [TGCATGCA_site961]	6.69
GGATTGATAAGTGGTACACACATATATATTATATAT [CACACA_site2866]	6.59
AAATATAAAAATAGCACACATATATACCTATATATA [CACACA_site4204]	7.26
GCATTGGGAATATATAGTACATATATATATATATAA [XGTACX_site2967]	6.56
AAAAATATTTAAAATACACACATATATATAATATAT [CACACA_site2006]	6.46
TTGAAAATAATATGAAGTACATTATTTTTTTTTAAT [XGTACX_site4499]	6.04
AAAACTTTCCATGTTTGTACATAAAATATAATAATT [XGTACX_site2716]	6.37
TTTTTTTTCTTTTTTTTTTTTTCAAAAGCTTATAAT [CACACA_negctrl_site1526]	5.8
GTGTATTTGGTGCGCACACACATGCAAAAAGAAATA [CACACA_site4768]	9.15
TGTATAATCATATATACACACACATATATATATATA [CACACA_site8674]	9.31
TTATATAAAAAAAAATGTACATATAATTGGTAAATT [XGTACX_site5180]	6.49
ATTTTTTTTTTTTTTTTTCATTTTTTTTTTTTTTTT [CACACA_negctrl_site1204]	6.17
TATATATTATATATATGTACATAATTCCATGTTTAG [XGTACX_site3943]	6.82
AACTCTTAAAAATAAACATGCAAATATTTACCTTCT [TGCATGCA_site986]	6.49
CTTGAAAGATTTTATTGTACTCATAAGATACATTTC [XGTACX_site3178]	6.05
TCATACAATATTAAATGTACATATATATATATATAT [XGTACX_site8828]	9.25
ATATTAAAGCCTTTTTGTACATATAAATAAACATAG [XGTACX_site4667]	6.66

Sequence	gcPBM binding intensity (ln)
TAATTTTTATTCAAGAGTACACAAAAGATAACTAAA [XGTACX_site4060]	6.26
TAGATACCTATAGAAACATGCAATTGAATATATTTC [TGCATGCA_site402]	6.39
TTCTTACACGTTTGCACACTAAAATATATATATATA [CACACA_site434]	10.7
TAAAAAAAATCATTCACACATATATGAAAAAAAAAA [CACACA_site5546]	6.39
TAAATAATTCTTTTAGTACACACGAATAAGCAGATA [CACACA_site305]	6.66
GTTACATACATATACACACACATATATATATATATA [CACACA_site901]	9.29
TATGTGATAACACGCACACAAATGTATTTAATTTAT [CACACA_site5435]	6.8
AAAAAATGAAAATATTCCAAAATAGAGGGAAATGTA [GTGCAC_negctrl_site572]	6.5
CACAAAAATGTAATCACACATATATATATATATATA [CACACA_site5818]	9.36
CTTTTTTAAAATATTTAACACACAATTTTAATGCAT [CACACA_site9303]	6.43
AAAATTAGGAGACATGCATGTAACGATAAATATAAC [TGCATGCA_site148]	7.67
TTATATTTATATATTTGTACGTATGTATATAATTCA [XGTACX_site2993]	6.14
ATTCTAATAATATATACACACACATATATATTTATA [CACACA_site8629]	6.74
GGTGGCTAAATTACAACACACGACGGAATATTATAT [CACACA_site4114]	6.66
AATATATGGTTTCATTATATTAAATTCAATTTAATG [CACACA_negctrl_site675]	5.99
ACCGTGGGAAGACACACACACACACCCACATATATA [CACACA_site333]	6.55
TTTTATTCATTGAGCACACAAAATAAATTATCAAAA [CACACA_site3279]	6.88
TGATTTATCTATATTTTATAAGTTATTTATTTTTTT [CACACA_negctrl_site1603]	5.8
AGTATATAATAATTTACACACAAAAAAATATCAGGA [CACACA_site3517]	6.7

Sequence	gcPBM binding intensity (ln)
ATATAAATATTTATTAGTACACATTAGTGTAGTTTT [XGTACX_site4493]	6.49
CTATATTATTTTTCTTGTACGTAGGAAATATAGCTA [XGTACX_site6176]	6.45
GAAAATTATATGTGTTGTACACTTGCAACAACTATT [XGTACX_site3637]	7.29
AAAATATATATTAACACACACACAAAAAAAAAAAAA [CACACA_site1325]	6.34
AGATATAAGAAAAGCACACACACACCCAAAAAAAAA [CACACA_site2826]	6.89
TTTTATAATGTTGTAGTGCAAAATACGTATATTTAT [GTGCAC_site9826]	9.65
AATAAATATATGTACACACACAAATATATACATATC [CACACA_site1903]	6.55
TGTGTATATAAATAATGTACATATATATTTTTTTAT [XGTACX_site7341]	6.42
GTAAAAAAAAAAAAAAGTACATTATACATATATTTA [XGTACX_site5447]	5.9
AAAGTATAAATAAATACACACATATATATATATATA [CACACA_site2892]	9.23
TGGAGGATAGTTCACAGTACCCAGTAACTCTACGGA [XGTACX_site4930]	6.22
AACCATAACTCATATGCACACATAAATATTACATAT [CACACA_site9273]	9.77
TACATTCGGAGTAAAAAAAAATTTATACAATTACTT [XGTACX_negctrl_site29]	6.1
TCTTGAAAAAGAATCAATCGGTCGACAAAAAAAAAA [CACACA_negctrl_site1099]	6.42
AAAAAACACTTAAGGTGTACCTTTTAATATAAGTAT [XGTACX_site2397]	6.34
GACAAATAATAAAAGGTGCATTATACTTAACAAAAA [GTGCAC_site9624]	9.69
ATATTCTTGTTTAATACACACTGTAGTATTATAGAT [CACACA_site6341]	7.02
TTTTTTAATATTTATTAATTAAACTTTGTTTTTGTT [XGTACX_negctrl_site454]	5.88
